# Measured values from PubChem BioAssay.
# This list was built around the results that the source calls inconclusive (neither active nor inactive); the mix of calls is not that of the screen. Calls of active or inactive are those of the source.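 How the source made its calls, unless noted: active means thallium flux slope above the same plate's solvent-control mean plus 3 SD in both duplicate wells; inconclusive means duplicate wells that disagreed; inactive means the rest.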
# What was measured:
# [1] = molecular target: Solute carrier family 12 member 5 (Homo sapiens) (UniProt Q9H2X9); experiment: modulation of KCC2 thallium flux in HEK cells – cell-based, ouabain, retest, confirmation (AID 1717;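 active means thallium flux slope beyond 3 SD from same-plate DMSO control mean in most replicates, usually higher, sometimes lower; inconclusive means repeat tests gave conflicting results; inactive means no significant difference from controls in most replicates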;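 further: slope of initial-normalized fluorescence between seconds 10 and 20 after thallium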); conditions: HEK293-KCC2, thallium flux FluoZin2 fluorescence, at 10 µM, bidirectional: low = inhibitor, high = activator
# UniProt Q9H2X9, sequence (Q9H2X9 whole entry, looked up): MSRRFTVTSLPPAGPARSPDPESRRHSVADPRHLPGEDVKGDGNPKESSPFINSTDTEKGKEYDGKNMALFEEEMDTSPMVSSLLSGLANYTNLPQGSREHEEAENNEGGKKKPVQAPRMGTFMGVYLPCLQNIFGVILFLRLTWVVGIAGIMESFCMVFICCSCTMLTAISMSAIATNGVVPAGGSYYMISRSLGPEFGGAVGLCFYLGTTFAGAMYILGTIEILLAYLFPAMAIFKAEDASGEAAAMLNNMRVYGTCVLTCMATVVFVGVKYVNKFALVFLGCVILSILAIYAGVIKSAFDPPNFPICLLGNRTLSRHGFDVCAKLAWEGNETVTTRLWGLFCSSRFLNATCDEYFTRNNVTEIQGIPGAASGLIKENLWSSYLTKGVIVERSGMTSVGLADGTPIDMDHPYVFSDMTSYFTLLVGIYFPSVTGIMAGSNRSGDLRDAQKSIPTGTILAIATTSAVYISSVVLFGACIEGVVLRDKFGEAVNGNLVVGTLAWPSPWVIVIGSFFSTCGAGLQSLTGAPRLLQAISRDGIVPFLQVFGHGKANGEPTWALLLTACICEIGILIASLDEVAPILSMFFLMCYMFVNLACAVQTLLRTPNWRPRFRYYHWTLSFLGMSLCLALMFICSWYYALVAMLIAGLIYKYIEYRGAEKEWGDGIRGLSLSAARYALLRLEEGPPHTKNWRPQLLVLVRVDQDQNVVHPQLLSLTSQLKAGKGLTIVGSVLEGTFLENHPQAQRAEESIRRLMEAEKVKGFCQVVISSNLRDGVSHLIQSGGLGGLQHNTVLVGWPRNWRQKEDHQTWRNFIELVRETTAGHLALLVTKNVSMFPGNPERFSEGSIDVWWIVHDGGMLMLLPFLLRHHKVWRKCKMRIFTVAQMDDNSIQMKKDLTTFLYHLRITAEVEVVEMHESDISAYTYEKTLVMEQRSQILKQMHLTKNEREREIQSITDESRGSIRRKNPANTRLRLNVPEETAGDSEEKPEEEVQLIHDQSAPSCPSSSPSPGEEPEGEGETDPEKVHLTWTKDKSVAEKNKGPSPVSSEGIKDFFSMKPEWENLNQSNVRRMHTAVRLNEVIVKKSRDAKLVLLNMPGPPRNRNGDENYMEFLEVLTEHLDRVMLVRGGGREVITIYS
# [2] = native HEK Tl+ uptake effects, second counter-screen – HEK cells, counterscreen 2, counter-screen for KCC2 modulator project, confirmation (AID 1718); conditions: HEK293 parental, thallium flux FluoZin-2 fluorescence slope; at 10 µM;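 further: run without ouabain in cells lacking the KCC2 cotransporter; slope of fluorescence scaled to its starting value between 10 and 20 s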
# Outline: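 Material: parental HEK cells. Medium: HBSS, 20 mM HEPES. Reagent: thallium sulfate stimulus, 12 mM in buffer, pH 7.3. Incubation: overnight cell culture at 37 °C, 48 min dye loading, compound before thallium. Signal: FluoZin-2 fluorescence kinetics. Read-out basis: thallium influx rate. Repeats: Per-replicate slope values.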
Compound,"raw Tl+ flux slope (below DMSO = inhibition, above = activation) [1]",thallium flux slope [2]
Cc1ccc(-c2n[nH]c(=O)c3ccccc23)cc1S(=O)(=O)NCCN1CCOCC1,inactive: 0.0226,inconclusive: 0.0111
Cc1ccc(N2C(=O)C(Cc3ccccc3)NC2=S)cc1 (stereo unspecified),inactive: 0.0236,inconclusive: 0.0111
O=C(Oc1c(Cl)cc(Cl)c2cccnc12)c1cccs1,active: 0.0351,inconclusive: 0.0117
CC(C)COC(=S)Nc1ccccc1,inconclusive: 0.022,inconclusive: 0.0128
COc1ccc(C(=O)Nc2nncs2)cc1S(=O)(=O)N1CC(c2ccccc2)CC1=O (stereo unspecified),inconclusive: 0.0157,inactive: 0.0112
Oc1c(Cl)cc(Cl)cc1/C=N/NC(=S)NC1CC2C=CC1C2 (stereo unspecified),inconclusive: 0.0235,inactive: 0.00968
Cc1cc(C(=O)Nc2nc3c(s2)CCCC3)no1,inactive: 0.0241,inconclusive: 0.0111
COc1ccccc1C(=O)NC(=S)N1CCc2ccccc21,inconclusive: 0.0246,inactive: 0.00937
COc1cccc(OCC(=O)NNC(=S)Nc2ccc(Cl)cc2Cl)c1,inconclusive: 0.0216,active: 0.0139
Cc1onc(-c2ccccc2Cl)c1C(=O)NC(=S)Nc1ccc(C(C)C)cc1,inconclusive: 0.0231,active: 0.0128
O=C(CCc1nnc(-c2ccc(-c3ccccc3)cc2)o1)NCCc1ccccn1,inconclusive: 0.0175,inconclusive: 0.0126
C(=N\n1cnnc1)/c1cccnc1,inactive: 0.021,inactive: 0.0101
CC(C)C(=O)N1CCN(c2ccccc2NC(=S)NC(=O)c2cccs2)CC1,inactive: 0.0186,inconclusive: 0.0111
Cc1sc2ncnc(SCC#N)c2c1C,inconclusive: 0.0232,inconclusive: 0.013
NC(=S)N=Nc1c(O)n(Cc2ccccc2)c2ccccc12,inconclusive: 0.0223,inconclusive: 0.0132
C/C(=N/NC(N)=S)c1ccc(Br)s1,inactive: 0.0271,inconclusive: 0.0112
Cc1sc(-n2c(C)cc(/C=C3\SC(=S)NC3=O)c2C)c(C#N)c1C,inconclusive: 0.0248,inconclusive: 0.0118

Compound,"raw Tl+ flux slope (below DMSO = inhibition, above = activation) [1]",thallium flux slope [2]
Fc1cccc(F)c1/C=N/NC(=S)Nc1cccnc1,inconclusive: 0.0226,inactive: 0.0107
CC1CC(C)CN(C(=O)CCCn2c(=S)[nH]c3ccccc3c2=O)C1 (stereo unspecified),inconclusive: 0.0275,inconclusive: 0.0123
Cc1noc(C)c1COc1ccc(C(=O)OCC(=O)NC2CCCCC2C)cc1 (stereo unspecified),inactive: 0.0183,inconclusive: 0.0123
Cc1ccccc1C(=O)NC(=S)NCCC1=CCCCC1,active: 0.0267,inconclusive: 0.0129
Oc1c(Br)cc(Br)cc1/C=N/NC(=S)N[C@H]1CC2C=CC1C2 (stereo partly specified),inconclusive: 0.0245,inactive: 0.00945
CN1CCN(C(=S)NC(=O)c2ccc(C(C)(C)C)cc2)CC1,inconclusive: 0.0241,active: 0.0147
c1ccc2sc(SN3CCOCC3)nc2c1,inactive: 0.0211,inconclusive: 0.0112
S=c1nc(-c2ccccc2)n(CCCN2CCOCC2)c2c1CCCC2,active: 0.0375,inconclusive: 0.0123
CN(C)c1ccc(NC(=O)c2sc(SCC(=O)Nc3nccs3)nc2N)cc1,inconclusive: 0.0227,active: 0.0145
O=C(N/N=C/c1cc([N+](=O)[O-])cc(Br)c1O)C12CC3CCC(CC(C3)C1)C2,inconclusive: 0.0264,inconclusive: 0.0118
COc1ccc(CCn2c(O)cc3nn(-c4nc5ccccc5s4)c(=O)c-3c2C)cc1,inactive: 0.0211,inconclusive: 0.0126
Cc1ccc(C(=O)N/N=C/c2ccc([N+](=O)[O-])s2)cc1,inconclusive: 0.0278,inconclusive: 0.0106
Cc1ccc(-c2ccc(/C=N/NC(N)=S)o2)cc1,inconclusive: 0.0227,inconclusive: 0.0123
CSc1ccccc1NC(=S)Nc1ccc(S(N)(=O)=O)cc1,inconclusive: 0.022,inconclusive: 0.0134
COc1ccc(Cn2c(=S)[nH]c3ccccc32)cc1,inconclusive: 0.0234,active: 0.0121
CCCCNC(=S)N/N=C/c1sccc1C,inconclusive: 0.0255,inconclusive: 0.0126
